# According to article PMC4336329 (PLoS ONE, 2015):
# In all, about 310,000 compounds went through this assay and about 14,000 (4.5%) showed an effect of 50% or more. The effect is printed as a negative number. Some of the results follow.
# Biological target: human ether-à-go-go-related gene (hERG) potassium channel (human, UniProt Q12809)
# Assay: primary screen, population patch clamp on CHO cells stably expressing hERG
# 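Further: peak tail current of the secondary pulse compared with the same well before compound.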
# Sequence of human ether-à-go-go-related gene (hERG) potassium channel (Q12809 whole entry, looked up): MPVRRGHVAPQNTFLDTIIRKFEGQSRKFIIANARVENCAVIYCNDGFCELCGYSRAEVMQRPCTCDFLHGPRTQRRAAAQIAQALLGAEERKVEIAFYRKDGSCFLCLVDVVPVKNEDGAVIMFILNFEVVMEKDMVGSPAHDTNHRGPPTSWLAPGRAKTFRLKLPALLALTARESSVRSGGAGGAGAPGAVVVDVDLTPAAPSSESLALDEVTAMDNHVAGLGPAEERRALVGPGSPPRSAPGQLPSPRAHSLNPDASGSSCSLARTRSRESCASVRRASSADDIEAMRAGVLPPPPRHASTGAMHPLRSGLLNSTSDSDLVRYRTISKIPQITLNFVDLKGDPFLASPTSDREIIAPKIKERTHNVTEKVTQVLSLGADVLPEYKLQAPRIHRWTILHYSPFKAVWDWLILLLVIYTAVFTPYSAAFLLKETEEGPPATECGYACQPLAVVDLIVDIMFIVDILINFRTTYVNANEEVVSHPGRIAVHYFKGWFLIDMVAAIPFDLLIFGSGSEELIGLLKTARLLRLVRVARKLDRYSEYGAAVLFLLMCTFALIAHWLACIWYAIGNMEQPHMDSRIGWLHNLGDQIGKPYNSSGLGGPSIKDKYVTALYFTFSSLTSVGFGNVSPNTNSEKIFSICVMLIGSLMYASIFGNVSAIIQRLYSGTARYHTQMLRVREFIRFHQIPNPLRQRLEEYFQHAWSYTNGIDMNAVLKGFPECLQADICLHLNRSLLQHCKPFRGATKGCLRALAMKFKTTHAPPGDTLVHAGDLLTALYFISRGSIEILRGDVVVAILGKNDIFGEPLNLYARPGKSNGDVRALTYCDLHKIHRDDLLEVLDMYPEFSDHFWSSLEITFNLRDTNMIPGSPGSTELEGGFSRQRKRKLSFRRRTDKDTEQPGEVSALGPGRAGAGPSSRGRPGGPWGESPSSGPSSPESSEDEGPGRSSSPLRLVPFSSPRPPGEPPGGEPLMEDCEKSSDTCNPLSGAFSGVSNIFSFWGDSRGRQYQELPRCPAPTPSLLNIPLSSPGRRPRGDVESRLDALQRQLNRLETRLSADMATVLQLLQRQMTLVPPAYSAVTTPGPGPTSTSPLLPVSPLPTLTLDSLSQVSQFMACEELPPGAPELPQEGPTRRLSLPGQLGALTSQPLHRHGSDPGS
row,SMILES,"hERG current change (%, negative = inhibition) at 10uM [%]"
1,CC(C)c1nc(SCC(=O)NC2CCCC2)c2c(=O)n(C)c(=O)n(C)c2n1,9.6
2,COc1ccccc1OCC(=O)NCCCn1ccnc1,7.02
3,Cc1cccc(NC(=O)c2cc(-c3cc(C)cc(C)c3O)n[nH]2)c1,31.2
4,O=S(=O)(O/N=C1\CCCc2ccccc21)c1ccc(Cl)cc1,4.69
5,Cc1cc(N/N=C/c2ccc(N(C)C)cc2)nc(NCc2ccccc2)n1,9.69
6,COc1ccc(S(=O)(=O)N2CCCCC2)cc1C(C)C,-1.61
7,Cc1cccc(C)c1NC(=O)CNC(=O)C1COc2ccccc2O1 (stereo not drawn),8.47
8,Cc1ccccc1N1C(=O)C(Oc2ccc(Cl)cc2)C1CNCC1CCCO1.Cl (stereo not drawn),-18
9,Cc1cccnc1NC(=O)CCn1c(=O)oc2ccccc21,2.77
10,COc1ccc(C(=O)Nn2c(C)nc3ccccc3c2=O)cc1,1.97
11,Cc1ccc(C)c(C(=O)N(Cc2nc(-c3ccc(Cl)cc3)no2)C(C)C)c1,-1.19
12,O=C(COC(=O)CCN1C(=O)C2CC=CCC2C1=O)NCCc1ccc(F)cc1 (stereo not drawn),-14.1
13,CCN(CC)C(=O)CSc1nc2ncc(Cl)cc2[nH]1,3.81
14,Cc1cc(N2CCN(C)CC2)nc2ccc(NC(=S)N3CCN(c4ccccn4)CC3)cc12,-27.7
15,O=C(Nc1ccc(-c2nc3cccnc3s2)cc1)c1ccc(Cl)nc1,2.49
16,CCOC(=O)N1CCN(C(=O)C2CCC(CNS(=O)(=O)c3ccc(Cl)cc3)CC2)CC1 (stereo not drawn),-10.1
17,CCc1cc2c(-c3ccccc3)cc(=O)oc2cc1OCC(C)=O,-6.98
18,COC(=O)c1nc(-c2ccccc2)oc1N1CCOCC1,13.8
19,Cc1ccc(C)c(CNS(=O)(=O)c2c(C)[nH]c(C)c2C(=O)N2CCCC2)c1,-47.1
20,COc1cc(SC)ccc1C(=O)Nc1nc(C)cc(C)n1,5.75
21,O=C(O)c1ccc(CSc2nc3ccc(NC(=O)c4ccccc4C(=O)O)cc3s2)cc1,20.8
22,CCCC(=O)N(CCN1CCOCC1)c1nc2ccc(OCC)cc2s1.Cl,-29.9
23,CCc1cc(=O)oc2cc(OCC(=O)NCCCn3ccnc3)c(Cl)cc12,-28.5
24,O=S(=O)(Nc1ccc(S(=O)(=O)Nc2nccs2)cc1)c1ccc(Br)cc1,14.5
